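In this assay, cells in 96-well plates receive the compound at five concentrations for 48 hours. Endpoints are linearly interpolated between the surrounding concentrations. Here, GI50 denotes the concentration required for 50% inhibition of growth. TGI: total growth inhibition.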
Tested on: NCI-H322M lung
Assay: DTP human tumour cell line panel, 48 h

Question: Which TGI does the source give for O=C1/C(=C\c2cccc(Oc3ccccc3)c2)SC(c2ccccc2)N1c1cc(Cl)ccc1Cl (stereo not given) here?
Answer: The TGI was over 100 µM.

Question: How did the TGI turn out when Cc1nc2ccncc2[nH]1 was run?
Answer: The TGI was over 100 µM.

Question: With N#CC(C(=O)Nc1ccccc1)C1=C(Cl)C(=O)c2ccccc2C1=O (stereo not given) as the compound, how does the TGI read?
Answer: The TGI was 27.9 µM.

Question: Which TGI does the source give for [O-][n+]1c2cccc(O)c2[n+]([O-])c2cccc(O)c21 here?
Answer: Its TGI is over 100 µM.

Question: For Cc1ccc(C(=O)Nc2ccc(Oc3cc4cnn(C)c4cc3-c3cn[nH]c3)c(F)c2)c(=O)n1-c1ccc(F)cc1, which GI50 is on record?
Answer: The GI50 was over 46.6 µM.

Question: What about the TGI of the same compound?
Answer: Its TGI is over 100 µM.

Question: With Cc1nc2sccn2c1C(=O)NNC(N)=S as the compound, how does the TGI read?
Answer: Its TGI is over 100 µM.

Question: CC(C)=CC1C(C(=O)OCc2cc3c(cc2Cl)OCO3)C1(C)C (stereo not given) was tested. Which TGI did it give?
Answer: The TGI was over 100 µM.

Question: For COCc1cc2c(s1)C(=O)C1=C(C2=O)C2(C=C(Br)C(=O)C(Br)=C2)CCN1, which TGI is on record?
Answer: Its TGI is 25.4 µM.

Question: With Cc1nnc(SCc2nc(C#N)c(C#N)nc2CSc2nnc(C)s2)s1 as the compound, how does the TGI read?
Answer: The TGI was over 100 µM.

Question: CC(=O)Nc1cccc(C#Cc2cncnc2Nc2ccc(OCc3cccc(F)c3)c(Cl)c2)c1 was tested. Which GI50 did it give?
Answer: Its GI50 is 5.88 µM.

Question: What about the TGI of the same compound?
Answer: The TGI was over 25 µM.

Question: CCc1c(O)nc(Nc2nc3ccccc3[nH]2)[nH]c1=O was tested. Which TGI did it give?
Answer: The TGI was over 100 µM.

Question: For O=c1[nH]c2ccccc2cc1-c1nnc(Cc2ccccc2)o1, which GI50 is on record?
Answer: Its GI50 is 15.8 µM.

Question: What about the TGI of the same compound?
Answer: The TGI was 34.4 µM.

Question: With CO[C@H]1C(=O)[C@]2(C)[C@@H](OC)C[C@H]3OC[C@@]3(OC(C)=O)[C@H]2[C@H](OC(=O)c2ccccc2)[C@]2(O)C[C@H](OC(=O)[C@H](O)[C@@H](NC(=O)OC(C)(C)C)c3ccccc3)C(C)=C1C2(C)C as the compound, how does the GI50 read?
Answer: Its GI50 is under 0.01 µM.

Question: What about the TGI of the same compound?
Answer: Its TGI is over 100 µM.

Question: Cc1ccc(S(=O)(=O)NC(=O)Nc2ccc(C(=O)O)cc2)cc1 was tested. Which TGI did it give?
Answer: Its TGI is over 100 µM.

Question: How did the TGI turn out when Cc1ccc(NC(=O)CC/C(CC(=O)C(C)(C)C)=N/NC(=O)c2cc3ccccc3cc2O)cc1C was run?
Answer: Its TGI is over 100 µM.

Question: Which TGI does the source give for Cc1cc2nc(N3C(=O)/C(=C/Cc4ccco4)N=C3c3ccccc3)sc2cc1C here?
Answer: Its TGI is over 100 µM.

Question: Which TGI does the source give for O=C(O)[C@H]1NC[C@H]2C(Br)=NO[C@@H]12 here?
Answer: The TGI was over 100 µM.

Question: For CC(C)(NO)/C(=N\O)c1ccccc1, which TGI is on record?
Answer: The TGI was over 10 µM.

Question: How did the TGI turn out when CC(=O)O[C@H]1CC[C@@H](OC(C)=O)[C@H]2[C@H](O)[C@H](O)[C@@H]1n1c(=O)n(-c3ccccc3)c(=O)n12 was run?
Answer: The TGI was over 100 µM.

Question: For COc1cccc2c(=O)oc(-c3ccccc3C)nc12, which TGI is on record?
Answer: Its TGI is over 100 µM.

Question: Which GI50 does the source give for O=C(O)c1ccccc1NCn1nc(-c2ccccc2O)oc1=S here?
Answer: The GI50 was over 100 µM.

Question: What about the TGI of the same compound?
Answer: Its TGI is over 100 µM.

Question: With COc1ccccc1N=Nc1c(O)ccc2ccccc12 as the compound, how does the TGI read?
Answer: Its TGI is over 100 µM.

Question: [C-]#[O+].[Cl][Sn]([Cl])[Cl].[Cl][Sn]([Cl])[Cl].[Pt].c1cnc2c(c1)ccc1cccnc12 was tested. Which TGI did it give?
Answer: Its TGI is 27.4 µM.

Question: With COC(=O)CCC(C)[C@H]1CCC2C3CC[C@@H]4CC5(CC[C@]4(C)C3C[C@H](OC(C)=O)[C@@]21C)OOC1(CCCCC1)OO5 (stereo not given in full) as the compound, how does the TGI read?
Answer: The TGI was over 100 µM.

Question: O=c1[nH]c2c(Nc3c4ccccc4nc4ccccc34)c([N+](=O)[O-])c(Nc3c4ccccc4nc4ccccc34)c([N+](=O)[O-])c2[nH]1 was tested. Which TGI did it give?
Answer: Its TGI is 3.6 µM.

Question: Cc1cc(NC(=O)NC(=O)c2ccccc2NC(=O)CN(C)C)ccc1Oc1ncc(Br)cn1 was tested. Which TGI did it give?
Answer: Its TGI is over 100 µM.

Question: With O=C(N/N=C/c1ccccc1)c1c(F)c(F)c(F)c(F)c1F as the compound, how does the TGI read?
Answer: Its TGI is over 100 µM.

Question: With CCCCCCCCCCCCCC(=O)O[C@H]1CC[C@H](NC(=O)[C@H](OC)[C@H](O)[C@@H](O)[C@H](O)/C=C/C(C)C)C(=O)N(C)C1 as the compound, how does the GI50 read?
Answer: The GI50 was 0.02 µM.

Question: What about the TGI of the same compound?
Answer: The TGI was over 23.8 µM.

Question: With CCOC(=O)c1cc(C(=O)c2ccc(OC)c(OC)c2)n2c1ccc1ccc3cccnc3c12 as the compound, how does the GI50 read?
Answer: Its GI50 is 6.09 µM.

Question: What about the TGI of the same compound?
Answer: Its TGI is over 100 µM.

Question: With COC(=O)c1c(O)ccc2c1c1c(n2Cc2ccc(OC)cc2)C(=O)c2ccccc2C1 as the compound, how does the TGI read?
Answer: Its TGI is over 100 µM.

Question: How did the TGI turn out when COC1=C(OC)C(=O)C(Cc2c(Cl)nc3sccn23)=C(C)C1=O was run?
Answer: Its TGI is 29.8 µM.

Question: How did the TGI turn out when Cc1ccc(S(=O)(=O)Nc2ccccc2C(C)(C)C)cc1 was run?
Answer: Its TGI is 60.5 µM.

Question: Which TGI does the source give for Nc1c(C(=O)O)c2ccc([N+](=O)[O-])cc2c(=O)n1-c1nc2ccccc2s1 here?
Answer: The TGI was over 100 µM.

Question: How did the TGI turn out when COc1cc2c(cc1OC)C1=C(C=O)c3ccc(OC)c(OC)c3C(O)N1CC2 (stereo not given) was run?
Answer: Its TGI is over 100 µM.

Question: For COc1cccc(/C=N/[N-]C(N)=O)c1[O-].[Cu+2].[OH3+], which TGI is on record?
Answer: The TGI was 30.7 µM.

Question: Which TGI does the source give for C=C1C(=O)O[C@@H]2C[C@@]3(C)[C@H](O)CCC(=C)[C@@H]3C[C@H]12 here?
Answer: The TGI was 21.3 µM.

Question: For COC(=O)[C@H](C)NC(=O)[C@H](NS(=O)(=O)c1nc2ccccc2s1)c1ccccc1, which TGI is on record?
Answer: The TGI was 56.4 µM.

Question: How did the GI50 turn out when CCN1C(=O)N(CC)C2C1NC(=S)N2/N=C/C=C/c1ccccc1 (stereo not given) was run?
Answer: The GI50 was 1.16 µM.

Question: And the TGI?
Answer: Its TGI is over 100 µM.

Question: How did the GI50 turn out when COc1cc([C@@H]2c3cc4c(cc3[C@H](SC(=N)N)[C@H]3COC(=O)[C@H]23)OCO4)cc(OC)c1OC was run?
Answer: The GI50 was 0.504 µM.

Question: And the TGI?
Answer: The TGI was over 100 µM.

Question: For O=C(Nc1ccccc1C(=O)NC(=O)c1ccccc1NC(=O)c1ccccc1)c1ccccc1, which TGI is on record?
Answer: Its TGI is 27.1 µM.

Question: Oc1cn(-c2ccc(Cl)cc2)nc1-c1n[nH]c(=S)n1-c1ccc(F)cc1 was tested. Which GI50 did it give?
Answer: Its GI50 is 22.8 µM.

Question: And the TGI?
Answer: Its TGI is over 100 µM.

Question: CN1C(c2ccccc2)CC(O)CC1c1ccccc1 (stereo not given) was tested. Which TGI did it give?
Answer: Its TGI is over 100 µM.

Question: How did the TGI turn out when CCOC(=O)N1CCNCCN(C(=O)OCC)CCNCC1 was run?
Answer: The TGI was over 100 µM.

Question: Cn1cc(-c2ccc3ncc(-c4ccc(CC(=O)Nc5cc(C(C)(C)C)nn5C)cc4)cc3c2)cn1 was tested. Which GI50 did it give?
Answer: The GI50 was 0.57 µM.

Question: What about the TGI of the same compound?
Answer: The TGI was over 20 µM.

Question: Which TGI does the source give for OC1=CN=C(c2ccccc2)Oc2ccccc21 here?
Answer: Its TGI is over 100 µM.

Question: What does the source list for O=c1[nH]c(=S)[nH]c(O)c1/C=C1\C=Nc2ccccc21?
Answer: GI50: 16.9 µM; TGI: 65.1 µM

Question: How did the TGI turn out when O=C(/C=C/c1ccccc1)c1cc(CN2CCOCC2)c(O)c(CN2CCOCC2)c1 was run?
Answer: Its TGI is 48.8 µM.

Question: Which TGI does the source give for Cc1ccc(-n2c3nc(=O)n(C)c(=O)c-3nc3ccccc32)c(C)c1 here?
Answer: The TGI was 29.8 µM.

— PubChem BioAssay (NCI)
